The values that follow come from patent US11517019B2, “Microbicidal system” (priority 2020, dated 2022).

The nature of the data set: Dissolution of CX powder in 140° F. municipal water. As to conditions: 50 mg CX in 1 L water at 140° F. with stirring. Here is the method:
The amount of added CX was twice the expected amount needed to reach saturation.
For chlorhexidine in its basic form, i.e., without the presence of acids, the published data on saturation levels in water vary widely, with reported values of 10, 26, 61 and even 800 mg/L (ppm) when measured at ambient temperature. Moreover, it is well known that hot water dissolves small molecules to a greater degree than does water at room temperature, because of the greater energy in heat. To test the expected lifetime of CX crystals in the present invention, six 50 mg aliquots of pure CX powder were exposed to 1 liter each of 140° F. (60° C.) municipal water for respective time periods of 0 seconds, 10 seconds, 30 seconds, 90 seconds, 300 seconds, and 1,200 seconds, then the remaining solid CX was removed and the CX concentration in the water was determined. […] This represented just under 2 weight percent of the powder in each case, and no more than that dissolved even with 20 minutes of exposure.

Bounds are passed on as bounds.

Take `N=C(NCCCCCCNC(=N)NC(=N)Nc1ccc(Cl)cc1)NC(=N)Nc1ccc(Cl)cc1` [CX, N,N″″1,6-Hexanediylbis[N-(4-chlorophenyl) (imidodicarbonimidic diamide)]]: the “time to reach near-equilibrium saturation levels” value is not above 30 s. For the same compound, where the note is “at 20 minutes”, the “final concentration of CX in water” value turned out to be 0.82 mg/L.
